Assay results as given in the supplement of paper PMC10126150.
Values marked as one replicate rest on one cluster of the flow cell; about a third of the high ones do not repeat.

Tested on: ATP
Assay: switch fluorescence ratio, 500 uM ATP over buffer (Cy3 cluster intensity, sum of 5 cycles each) (fold (ratio)); higher = stronger signal-on switching upon ATP binding; sequences stand for … in TCGTCGGCAGCGTCAGATGTGTATAAGAGACAGTTTTTTTTTTTTTTTTTTTTTTTTT…TC
Details: aptamer strand: ATP DNA aptamer (quencher-CACCTGGGGGAGTATTGCGGAGGAAGG + anchor), 100 nM annealed; ATP concentration: 500 uM; one replicate
Outline: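 Switching-strand clusters labelled with Cy3 on a modified Illumina MiSeq flow-cell were annealed to 100 nM quencher-labelled ATP aptamer, imaged in selection buffer, and re-imaged after 15 min with 500 uM ATP at 22 °C. This was done over five cycles with NaOH stripping and re-annealing in between. The fluorescence ratio is summed target-cycle over summed buffer-cycle Cy3 intensity per cluster, averaged per switch-domain sequence, excluding clusters outside 100-1000 RFU.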
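Further: ATP exposure 15 min at 22 °C before imaging.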

Row | Sequence | switch fluorescence ratio
1 | CTACTGGACA | 1.21
2 | ACAGTCATCA | 1.03
3 | TCGTTCGTTC | 1
4 | ACCCGATCCG | 1.09
5 | CTCCTATTGG | 0.987
6 | ACGGTCCTCG | 1.01
7 | GACGCAAAAA | 1.58
8 | CACTCGGTAT | 1.02
9 | AATATAGAGC | 1.02
10 | ACAGGTTTCC | 0.954
11 | ATTGGATCG | 0.964
12 | ATTGCCGGTA | 1.02
13 | GCTGATG | 1.04
14 | CCGGCTCCAA | 2.08
15 | TAATTATTCC | 1.17
16 | GATACCGGGC | 1
17 | TGTTGCCCGG | 1.05
18 | TCCGTTCGGT | 1.02
19 | CATGTCTGT | 0.985
20 | GATTACTTAG | 1.06
21 | CGCTACTACT | 3.26
22 | AGATGGATG | 0.991
23 | ACTGCGCACG | 1.35

Row | Sequence | switch fluorescence ratio
24 | CCAAGGGAAC | 0.994
25 | TATGAGCCCA | 0.981
26 | TAGTGGTCGG | 0.968
27 | GCGACTGCGC | 1.09
28 | ATTCCGTTTC | 1.09
29 | CATGTAGGCG | 0.915
30 | ACTGTACTAA | 1.37
31 | AGGCCGCAAT | 5.78
32 | TGACGATGGA | 1.04
33 | TGGAGTCGGA | 1.03
34 | CAAGACCGTC | 1.1
35 | CCAGATTCTG | 0.986
36 | AGGAATAGTC | 1.1
37 | AGGGTTTCAT | 1.09
38 | ACAGCGGAG | 1.03
39 | TTTTTACCTA | 1.01
40 | TATGCAACGC | 1.14
41 | GTGAGACCTG | 0.932
42 | GGCCGTCGGG | 1.03
43 | TATATCTTAG | 1.04
44 | TTTCGGATAG | 0.967
45 | CTATGTGTTT | 1.03
46 | GCTAGTGGCT | 1.01

Row | Sequence | switch fluorescence ratio
47 | AGCTTCTGTA | 1.04
48 | CTTGGATATA | 1.03
49 | CCGGGGGAGC | 0.979
50 | CTGTAAAATG | 1.02
51 | GGCGTCCATT | 0.969
52 | TAGGCATTCA | 1.01
53 | GGGCATGTCA | 1.03
54 | GAGGGTGGTA | 0.943
55 | CCGTGTCTTA | 0.984
56 | AACCGTATTA | 1.1
57 | TCTCAACCTT | 1.1
58 | CGTTCGTCGA | 1.04
59 | GCTATTATGT | 1.02
60 | CAGTGAACAG | 1.01
61 | GGGTATGGTC | 1.01
62 | GTGCTTATTA | 1.04
63 | ATGGCGCGTG | 0.97
64 | GGGTACGTAG | 1.03
65 | AATGGGCTTT | 0.979
66 | CGAGCTCACA | 1.02
67 | ATGCTAAA | 0.951
68 | GAGGGTAG | 1.02
69 | TACGTACCCC | 1.39

Row | Sequence | switch fluorescence ratio
70 | TGGTATTGTA | 1.02
71 | ATAACTCCTG | 0.984
72 | TTACAAAGTT | 1.04
73 | TCGATTGCTT | 1.01
74 | ACAAGATGGA | 0.963
75 | TGGCGGAGCT | 1.01
76 | ACACATCTAA | 0.977
77 | TATGGGCTGT | 1.01
78 | GAATACAGGG | 1.05
79 | ATGTGCTGCA | 0.962
80 | TCTTCTTTTG | 1.03
81 | CCGGCGGGAC | 2.3
82 | TTAAGACTAG | 1.01
83 | AACTGTAAGG | 1
84 | TTTGCCTTGA | 1.03
85 | CAGTTAGCGT | 0.94
86 | GTCCCTGTGG | 1.01
87 | GGTAGATAGG | 0.956
88 | CGGGTATGTT | 0.996
89 | CATTCTGATT | 1.03
90 | GGCGTTGGTT | 1
91 | ACCTGAGTAG | 1.02
92 | ACACGAAACA | 1.18

Row | Sequence | switch fluorescence ratio
93 | ATGAAAGGCG | 1.04
94 | ATGTGAAGGC | 1.03
95 | AGGCTACGT | 1.01
96 | AGACTGTCCT | 0.986
97 | GCCTGTCGCA | 1.05
98 | CGTCTAATCA | 0.983
99 | TAAATATT | 0.983
100 | AAGTAGCTC | 1.03
101 | TAGACATGTC | 0.991
102 | TTGCGTCTTA | 1.06
103 | AAGAAAGCGA | 0.897
104 | GCGTACCATA | 1.06
105 | ACTGAACCTT | 1.78
106 | TTCACGGAAA | 1.06
107 | TCTAAATACT | 1.38
108 | GTTTTAGAG | 1.01
109 | CGTACCGATC | 1.07
110 | TGAGTTAG | 1.01
111 | GGGGAATTCT | 0.971
112 | GTGCGAGTGC | 0.973
113 | ACCGAGTGGA | 1.05
114 | GTGTTTACGG | 0.991
115 | TGCCTTGTAG | 0.986

Row | Sequence | switch fluorescence ratio
116 | GCTGTGAAT | 0.974
117 | TAGATCCTG | 1
118 | GGCGCCCACT | 0.994
119 | TAGGGAGCAG | 1.34
120 | AGGCCCCGA | 0.981
121 | GGGGGTGTTA | 1.01
122 | AGAGGCGCTT | 1.03
123 | ACTCCCTC | 1.76
124 | ATGCCTAAGT | 0.978
125 | ATCTTGGCA | 0.998
126 | ATCGGAGCTG | 0.997
127 | TGGCGGTC | 1.05
128 | CATACCATTG | 0.992
129 | CGTTTTAGTT | 0.956
130 | AATAGGGGGC | 0.922
131 | CCATGGGGAA | 1.04
132 | ATGTCGGGGG | 1.13
133 | TTTGTAAGAG | 1.03
134 | ATGAGGCGCA | 0.983
135 | TTTTTAAGA | 1.01
136 | AGATTTAATC | 1.01
137 | CTAATTGCAT | 1.04
138 | ACCAATAAGG | 0.98

Row | Sequence | switch fluorescence ratio
139 | GTTAGAAACA | 0.959
140 | GTTGTCACCT | 1.06
141 | AACACGGGGC | 1.05
142 | CGGATATTTT | 1.07
143 | CCATTTAAC | 1.02
144 | TCCGCATCCA | 3.27
145 | CTCCTGAATT | 1.04
146 | TCAGAAGTCA | 1.03
147 | GCTTACGCCC | 1.02
148 | GGGTGGAGCG | 1.06
149 | TCATAAATAG | 1
150 | GGGGGCCAGT | 1.03
151 | GGGCATTAAC | 1.12
152 | GTAGTCGGTC | 1.01
153 | TGTATGCGGG | 0.959
154 | AGGCAAGGAG | 0.957
155 | ATCTTGCTGC | 1.01
156 | CTGCCAACGA | 1.07
157 | TCGTGTACCT | 1.09
158 | AAGTAGTAAT | 1.01
